# Some of the results follow. Binding of human transcription factors and regulators to the viral nucleoprotein by AlphaScreen, crude cell-free proteins, amounts not normalised, one pass. Fold of the Venus control; higher = more signal. No active / inactive call. Single-pass screen; sequences are the whole Swiss-Prot entries looked up by name.
# B1: NKX2-6, A6NCS4 (protein)
# chain: MLLSPVTSTPFSVKDILRLERERSCPAASPHPRVRKSPENFQYLRMDAEPRGSEVHNAGGGGGDRKLDGSEPPGGPCEAVLEMDAERMGEPQPGLNAASPLGGGTRVPERGVGNSGDSVRGGRSEQPKARQRRKPRVLFSQAQVLALERRFKQQRYLSAPEREHLASALQLTSTQVKIWFQNRRYKCKRQRQDKSLELAGHPLTPRRVAVPVLVRDGKPCLGPGPGAPAFPSPYSAAVSPYSCYGGYSGAPYGAGYGTCYAGAPSGPAPHTPLASAGFGHGGQNATPQGHLAATLQGVRAW
# B2: PELI1, Q96FA3 (protein)
# chain: MFSPDQENHPSKAPVKYGELIVLGYNGSLPNGDRGRRKSRFALFKRPKANGVKPSTVHIACTPQAAKAISNKDQHSISYTLSRAQTVVVEYTHDSNTDMFQIGRSTESPIDFVVTDTVPGSQSNSDTQSVQSTISRFACRIICERNPPFTARIYAAGFDSSKNIFLGEKAAKWKTSDGQMDGLTTNGVLVMHPRNGFTEDSKPGIWREISVCGNVFSLRETRSAQQRGKMVEIETNQLQDGSLIDLCGATLLWRTAEGLSHTPTVKHLEALRQEINAARPQCPVGFNTLAFPSMKRKDVVDEKQPWVYLNCGHVHGYHNWGNKEERDGKDRECPMCRSVGPYVPLWLGCEAGFYVDAGPPTHAFSPCGHVCSEKTTAYWSQIPLPHGTHTFHAACPFCAHQLAGEQGYIRLIFQGPLD
# B3: ICAM1, P05362 (protein)
# chain: MAPSSPRPALPALLVLLGALFPGPGNAQTSVSPSKVILPRGGSVLVTCSTSCDQPKLLGIETPLPKKELLLPGNNRKVYELSNVQEDSQPMCYSNCPDGQSTAKTFLTVYWTPERVELAPLPSWQPVGKNLTLRCQVEGGAPRANLTVVLLRGEKELKREPAVGEPAEVTTTVLVRRDHHGANFSCRTELDLRPQGLELFENTSAPYQLQTFVLPATPPQLVSPRVLEVDTQGTVVCSLDGLFPVSEAQVHLALGDQRLNPTVTYGNDSFSAKASVSVTAEDEGTQRLTCAVILGNQSQETLQTVTIYSFPAPNVILTKPEVSEGTEVTVKCEAHPRAKVTLNGVPAQPLGPRAQLLLKATPEDNGRSFSCSATLEVAGQLIHKNQTRELRVLYGPRLDERDCPGNWTWPENSQQTPMCQAWGNPLPELKCLKDGTFPLPIGESVTVTRDLEGTYLCRARSTQGEVTRKVTVNVLSPRYEIVIITVVAAAVIMGTAGLSTYLYNRQRKIKKYRLQQAQKGTPMKPNTQATPP
# B4: KDM5B, Q9UGL1 (protein)
# chain: MEAATTLHPGPRPALPLGGPGPLGEFLPPPECPVFEPSWEEFADPFAFIHKIRPIAEQTGICKVRPPPDWQPPFACDVDKLHFTPRIQRLNELEAQTRVKLNFLDQIAKYWELQGSTLKIPHVERKILDLFQLNKLVAEEGGFAVVCKDRKWTKIATKMGFAPGKAVGSHIRGHYERILNPYNLFLSGDSLRCLQKPNLTTDTKDKEYKPHDIPQRQSVQPSETCPPARRAKRMRAEAMNIKIEPEETTEARTHNLRRRMGCPTPKCENEKEMKSSIKQEPIERKDYIVENEKEKPKSRSKKATNAVDLYVCLLCGSGNDEDRLLLCDGCDDSYHTFCLIPPLHDVPKGDWRCPKCLAQECSKPQEAFGFEQAARDYTLRTFGEMADAFKSDYFNMPVHMVPTELVEKEFWRLVSTIEEDVTVEYGADIASKEFGSGFPVRDGKIKLSPEEEEYLDSGWNLNNMPVMEQSVLAHITADICGMKLPWLYVGMCFSSFCWHIEDHWSYSINYLHWGEPKTWYGVPGYAAEQLENVMKKLAPELFVSQPDLLHQLVTIMNPNTLMTHEVPVYRTNQCAGEFVITFPRAYHSGFNQGFNFAEAVNFCTVDWLPLGRQCVEHYRLLHRYCVFSHDEMICKMASKADVLDVVVASTVQKDMAIMIEDEKALRETVRKLGVIDSERMDFELLPDDERQCVKCKTTCFMSAISCSCKPGLLVCLHHVKELCSCPPYKYKLRYRYTLDDLYPMMNALKLRAESYNEWALNVNEALEAKINKKKSLVSFKALIEESEMKKFPDNDLLRHLRLVTQDAEKCASVAQQLLNGKRQTRYRSGGGKSQNQLTVNELRQFVTQLYALPCVLSQTPLLKDLLNRVEDFQQHSQKLLSEETPSAAELQDLLDVSFEFDVELPQLAEMRIRLEQARWLEEVQQACLDPSSLTLDDMRRLIDLGVGLAPYSAVEKAMARLQELLTVSEHWDDKAKSLLKARPRHSLNSLATAVKEIEEIPAYLPNGAALKDSVQRARDWLQDVEGLQAGGRVPVLDTLIELVTRGRSIPVHLNSLPRLETLVAEVQAWKECAVNTFLTENSPYSLLEVLCPRCDIGLLGLKRKQRKLKEPLPNGKKKSTKLESLSDLERALTESKETASAMATLGEARLREMEALQSLRLANEGKLLSPLQDVDIKICLCQKAPAAPMIQCELCRDAFHTSCVAVPSISQGLRIWLCPHCRRSEKPPLEKILPLLASLQRIRVRLPEGDALRYMIERTVNWQHRAQQLLSSGNLKFVQDRVGSGLLYSRWQASAGQVSDTNKVSQPPGTTSFSLPDDWDNRTSYLHSPFSTGRSCIPLHGVSPEVNELLMEAQLLQVSLPEIQELYQTLLAKPSPAQQTDRSSPVRPSSEKNDCCRGKRDGINSLERKLKRRLEREGLSSERWERVKKMRTPKKKKIKLSHPKDMNNFKLERERSYELVRSAETHSLPSDTSYSEQEDSEDEDAICPAVSCLQPEGDEVDWVQCDGSCNQWFHQVCVGVSPEMAEKEDYICVRCTVKDAPSRK
# B5: BARHL1, Q9BZE3 (protein)
# chain: MEGSNGFGIDSILSHRAGSPALPKGDPLLGDCRSPLELSPRSESSSDCSSPASPGRDCLETGTPRPGGASGPGLDSHLQPGQLSAPAQSRTVTSSFLIRDILADCKPLAACAPYSSSGQPAAPEPGGRLAAKAAEDFRDKLDKSGSNASSDSEYKVKEEGDREISSSRDSPPVRLKKPRKARTAFTDHQLAQLERSFERQKYLSVQDRMELAASLNLTDTQVKTWYQNRRTKWKRQTAVGLELLAEAGNYSALQRMFPSPYFYPQSLVSNLDPGAALYLYRGPSAPPPALQRPLVPRILIHGLQGASEPPPPLPPLAGVLPRAAQPR
# B6: TP73, O15350 (protein)
# chain: MAQSTATSPDGGTTFEHLWSSLEPDSTYFDLPQSSRGNNEVVGGTDSSMDVFHLEGMTTSVMAQFNLLSSTMDQMSSRAASASPYTPEHAASVPTHSPYAQPSSTFDTMSPAPVIPSNTDYPGPHHFEVTFQQSSTAKSATWTYSPLLKKLYCQIAKTCPIQIKVSTPPPPGTAIRAMPVYKKAEHVTDVVKRCPNHELGRDFNEGQSAPASHLIRVEGNNLSQYVDDPVTGRQSVVVPYEPPQVGTEFTTILYNFMCNSSCVGGMNRRPILIIITLEMRDGQVLGRRSFEGRICACPGRDRKADEDHYREQQALNESSAKNGAASKRAFKQSPPAVPALGAGVKKRRHGDEDTYYLQVRGRENFEILMKLKESLELMELVPQPLVDSYRQQQQLLQRPSHLQPPSYGPVLSPMNKVHGGMNKLPSVNQLVGQPPPHSSAATPNLGPVGPGMLNNHGHAVPANGEMSSSHSAQSMVSGSHCTPPPPYHADPSLVSFLTGLGCPNCIEYFTSQGLQSIYHLQNLTIEDLGALKIPEQYRMTIWRGLQDLKQGHDYSTAQQLLRSSNAATISIGGSGELQRQRVMEAVHFRVRHTITIPNRGGPGGGPDEWADFGFDLPDCKARKQPIKEEFTEAEIH
# B7: DRAP1, Q14919 (protein)
# chain: MPSKKKKYNARFPPARIKKIMQTDEEIGKVAAAVPVIISRALELFLESLLKKACQVTQSRNAKTMTTSHLKQCIELEQQFDFLKDLVASVPDMQGDGEDNHMDGDKGARRGRKPGSGGRKNGGMGTKSKDKKLSGTDSEQEDESEDTDTDGEEETSQPPPQASHPSAHFQSPPTPFLPFASTLPLPPAPPGPSAPDEEDEEDYDS
# B8: TRIM38, O00635 (protein)
# chain: MASTTSTKKMMEEATCSICLSLMTNPVSINCGHSYCHLCITDFFKNPSQKQLRQETFCCPQCRAPFHMDSLRPNKQLGSLIEALKETDQEMSCEEHGEQFHLFCEDEGQLICWRCERAPQHKGHTTALVEDVCQGYKEKLQKAVTKLKQLEDRCTEQKLSTAMRITKWKEKVQIQRQKIRSDFKNLQCFLHEEEKSYLWRLEKEEQQTLSRLRDYEAGLGLKSNELKSHILELEEKCQGSAQKLLQNVNDTLSRSWAVKLETSEAVSLELHTMCNVSKLYFDVKKMLRSHQVSVTLDPDTAHHELILSEDRRQVTRGYTQENQDTSSRRFTAFPCVLGCEGFTSGRRYFEVDVGEGTGWDLGVCMENVQRGTGMKQEPQSGFWTLRLCKKKGYVALTSPPTSLHLHEQPLLVGIFLDYEAGVVSFYNGNTGCHIFTFPKASFSDTLRPYFQVYQYSPLFLPPPGD
# B9: NLRP12, P59046 (protein)
# chain: MLRTAGRDGLCRLSTYLEELEAVELKKFKLYLGTATELGEGKIPWGSMEKAGPLEMAQLLITHFGPEEAWRLALSTFERINRKDLWERGQREDLVRDTPPGGPSSLGNQSTCLLEVSLVTPRKDPQETYRDYVRRKFRLMEDRNARLGECVNLSHRYTRLLLVKEHSNPMQVQQQLLDTGRGHARTVGHQASPIKIETLFEPDEERPEPPRTVVMQGAAGIGKSMLAHKVMLDWADGKLFQGRFDYLFYINCREMNQSATECSMQDLIFSCWPEPSAPLQELIRVPERLLFIIDGFDELKPSFHDPQGPWCLCWEEKRPTELLLNSLIRKKLLPELSLLITTRPTALEKLHRLLEHPRHVEILGFSEAERKEYFYKYFHNAEQAGQVFNYVRDNEPLFTMCFVPLVCWVVCTCLQQQLEGGGLLRQTSRTTTAVYMLYLLSLMQPKPGAPRLQPPPNQRGLCSLAADGLWNQKILFEEQDLRKHGLDGEDVSAFLNMNIFQKDINCERYYSFIHLSFQEFFAAMYYILDEGEGGAGPDQDVTRLLTEYAFSERSFLALTSRFLFGLLNEETRSHLEKSLCWKVSPHIKMDLLQWIQSKAQSDGSTLQQGSLEFFSCLYEIQEEEFIQQALSHFQVIVVSNIASKMEHMVSSFCLKRCRSAQVLHLYGATYSADGEDRARCSAGAHTLLVQLPERTVLLDAYSEHLAAALCTNPNLIELSLYRNALGSRGVKLLCQGLRHPNCKLQNLRLKRCRISSSACEDLSAALIANKNLTRMDLSGNGVGFPGMMLLCEGLRHPQCRLQMIQLRKCQLESGACQEMASVLGTNPHLVELDLTGNALEDLGLRLLCQGLRHPVCRLRTLWLKICRLTAAACDELASTLSVNQSLRELDLSLNELGDLGVLLLCEGLRHPTCKLQTLRLGICRLGSAACEGLSVVLQANHNLRELDLSFNDLGDWGLWLLAEGLQHPACRLQKLWLDSCGLTAKACENLYFTLGINQTLTDLYLTNNALGDTGVRLLCKRLSHPGCKLRVLWLFGMDLNKMTHSRLAALRVTKPYLDIGC
# Biological target: nucleoprotein N of Crimean-Congo hemorrhagic fever virus
# Experiment: AlphaScreen luminescence signal relative to Venus negative control (fold); higher = stronger binding to CCHFV N
# Description: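 AlphaScreen binding of cell-free made, FLAG-GST-tagged human transcription factors and regulators (crude translation products) to biotinylated N protein; signal as fold of the FLAG-GST-Venus control. One pass.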
row,Binder,AlphaScreen luminescence signal
1,B1,4.93
2,B2,2.28
3,B3,2.37
4,B4,3.49
5,B5,3.12
6,B6,1.44
7,B7,1.49
8,B8,1.95
9,B9,2

# Source: the supplement of paper PMC12423691
